Test results: patent publication US20230312722A1 (NONA BIOSCIENCES SUZHOU, published 2023)
Changes are numbered by the printed parent chain. Names may count otherwise. Like-named read-outs stand apart in the source and are kept apart here.

T1: cynomolgus monkey B7H4 on the cell surface (cynomolgus monkey, UniProt A0A2K5U6P5 25-282)
T1 construct: whole, on cells; also called CHOK1/cyno B7H4
T1 sequence: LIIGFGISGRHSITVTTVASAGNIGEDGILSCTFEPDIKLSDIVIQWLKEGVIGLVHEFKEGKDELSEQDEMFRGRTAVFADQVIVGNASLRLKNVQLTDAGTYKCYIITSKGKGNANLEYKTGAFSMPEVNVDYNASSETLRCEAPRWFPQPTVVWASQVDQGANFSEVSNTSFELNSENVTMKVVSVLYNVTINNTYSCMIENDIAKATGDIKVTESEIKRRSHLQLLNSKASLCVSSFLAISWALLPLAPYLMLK

T2: mouse B7H4 on the cell surface (mouse, UniProt Q7TSP5 25-257)
T2 construct: whole, on cells; also called CHOK1/m B7H4
T2 sequence (looked up): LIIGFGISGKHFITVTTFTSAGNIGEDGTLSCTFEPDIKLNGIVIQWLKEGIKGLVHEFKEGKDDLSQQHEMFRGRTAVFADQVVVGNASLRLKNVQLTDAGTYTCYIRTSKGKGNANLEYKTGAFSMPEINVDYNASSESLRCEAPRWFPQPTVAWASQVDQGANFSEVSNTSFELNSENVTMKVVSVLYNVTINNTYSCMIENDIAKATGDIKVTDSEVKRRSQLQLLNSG

T3: human B7H4 on the cell surface (human, UniProt Q7Z7D3 25-282)
T3 construct: whole, on cells; also called CHOK1/hu B7H4; B7H4 on SK-BR-3
T3 sequence (looked up): T1 sequence with I53L, L242F, A252S

B1: PR003001 (bispecific antibody, human IgG1, kappa, L234A L235A)
chain: QVQLVESGGGVVQPGRSLRLSCAASGFTFRSFGMHWVRQAPGKGLEWVAVISYDGSNEYYADSVKGRFIISRDNSKDTLYLQMNSLRAGDTAVYYCAKGGGLRWYFAYWGQGTLVTVSSASTKGPSVFPLAPSSKSTSGGTAALGCLVKDYFPEPVTVSWNSGALTSGVHTFPAVLQSSGLYSLSSVVTVPSSSLGTQTYICNVNHKPSNTKVDKKVEPKSCGGGGSQAVVTQEPSLTVSPGGTVTLTCRSSTGAVTTSNYANWVQQKPGQAPRGLIGGTNKRAPWTPARFSGSLLGDKAALTLLGAQPEDEAEYFCALWYSNLWVFGGGTKLTVLGGGQSGQGGSGGGGSEVQLVESGGGLVQPGGSLKLSCAASGFTFNTYAMNWVRQASGKGLEWVGRIRSKYNNYATYYADSVKDRFTISRDDSKSTLYLQMNSLKTEDTAVYYCVRHGNFGNSYVSWFAYWGQGTLVTVSSASEPKSSDKTHTCPPCPAPEAAGGPSVFLFPPKPKDTLMISRTPEVTCVVVDVSHEDPEVKFNWYVDGVEVHNAKTKPREEQYNSTYRVVSVLTVLHQDWLNGKEYKCKVSNKALGAPIEKTISKAKGQPREPQVYTLPPCREEMTKNQVSLWCLVKGFYPSDIAVEWESNGQPENNYKTTPPVLDSDGSFFLYSKLTVDKSRWQQGNVFSCSVMHEALHNHYTQKSLSLSPGK
heavy: QVQLVESGGGVVQPGRSLRLSCAASGFTFRSFGMHWVRQAPGKGLEWVAVISYDGSNEYYADSVKGRFIISRDNSKDTLYLQMNSLRAGDTAVYYCAKGGGLRWYFAYWGQGTLVTVSSASTKGPSVFPLAPSSKSTSGGTAALGCLVKDYFPEPVTVSWNSGALTSGVHTFPAVLQSSGLYSLSSVVTVPSSSLGTQTYICNVNHKPSNTKVDKKVEPKSCDKTHTCPPCPAPEAAGGPSVFLFPPKPKDTLMISRTPEVTCVVVDVSHEDPEVKFNWYVDGVEVHNAKTKPREEQYNSTYRVVSVLTVLHQDWLNGKEYKCKVSNKALGAPIEKTISKAKGQPREPQVCTLPPSREEMTKNQVSLSCAVKGFYPSDIAVEWESNGQPENNYKTTPPVLDSDGSFFLVSKLTVDKSRWQQGNVFSCSVMHEALHNHYTQKSLSLSPGK
light: EIVMTQSPATLSVSPGERATLSCRASQSISSNLGWYQQKPGQAPRLLIYGASTRATGIPARFSGSGSGTEFTLTISSLQSEDFAVYYCQQYNSWPPLTFGGGTKVEIKRTVAAPSVFIFPPSDEQLKSGTASVVCLLNNFYPREAKVQWKVDNALQSGNSQESVTEQDSKDSTYSLSSTLTLSKADYEKHKVYACEVTHQGLSSPVTKSFNRGEC
notes: B7H4 x CD3, 2+1 asymmetric structure (structure 7): CD3 scFv(VL-VH) from PR000627, two B7H4 Fabs from PR001476
B2: PR003008 (bispecific antibody, human IgG1, kappa, L234A L235A)
chain: QVQLVESGGGVVQPGRSLRLSCAASGFTFRSFGMHWVRQAPGKGLEWVAVISYDGSNEYYADSVKGRFIISRDNSKDTLYLQMNSLRAGDTAVYYCAKGGGLRWYFAYWGQGTLVTVSSASTKGPSVFPLAPSSKSTSGGTAALGCLVKDYFPEPVTVSWNSGALTSGVHTFPAVLQSSGLYSLSSVVTVPSSSLGTQTYICNVNHKPSNTKVDKKVEPKSCDKTHTCPPCPAPEAAGGPSVFLFPPKPKDTLMISRTPEVTCVVVDVSHEDPEVKFNWYVDGVEVHNAKTKPREEQYNSTYRVVSVLTVLHQDWLNGKEYKCKVSNKALGAPIEKTISKAKGQPREPQVYTLPPCREEMTKNQVSLWCLVKGFYPSDIAVEWESNGQPENNYKTTPPVLDSDGSFFLYSKLTVDKSRWQQGNVFSCSVMHEALHNHYTQKSLSLSPGGGGGSQAVVTQEPSLTVSPGGTVTLTCRSSTGAVTTSNYANWVQQKPGQAPRGLIGGTNKRAPWTPARFSGSLLGDKAALTLLGAQPEDEAEYFCALWYSNLWVFGGGTKLTVLGGGQSGQGGSGGGGSEVQLVESGGGLVQPGGSLKLSCAASGFTFNTYAMNWVRQASGKGLEWVGRIRSKYNNYATYYADSVKDRFTISRDDSKSTLYLQMNSLKTEDTAVYYCVRHGNFGNSYVSWFAYWGQGTLVTVSS
heavy: B1 heavy
light: B1 light
notes: B7H4 x CD3, 2+1 asymmetric structure (structure 9): CD3 scFv(VL-VH) from PR000627, two B7H4 Fabs from PR001476
B3: PR001476 (antibody, human IgG1, kappa)
heavy: QVQLVESGGGVVQPGRSLRLSCAASGFTFRSFGMHWVRQAPGKGLEWVAVISYDGSNEYYADSVKGRFIISRDNSKDTLYLQMNSLRAGDTAVYYCAKGGGLRWYFAYWGQGTLVTVSS[human IgG1 constant region not written out]
light: B1 light
notes: Initial fully human antibody from Harbour H2L2 mice, human IgG1; also called 80C8-2E9; RP001476
B4: PR002411 (antibody, human IgG1, kappa)
heavy chain: QVQLVESGGGVVQPGRSLRLSCAASGFTFRSFGMHWVRQAPGKGLEWVAVISYDGSNEYYADSVKGRFIISRDNSKDTLYLQMNSLRAGDTAVYYCAKGGGLRWYFAYWGQGTLVTVSSASTKGPSVFPLAPSSKSTSGGTAALGCLVKDYFPEPVTVSWNSGALTSGVHTFPAVLQSSGLYSLSSVVTVPSSSLGTQTYICNVNHKPSNTKVDKKV[human IgG1 Fc with changes not written out]
light chain: B1 light
notes: also called PR002411 supernatant
B5: PR002410 (antibody, human IgG1, kappa)
heavy: QVQLVQSGAEVKKPGSSMRVSCKASEDTFSSYAISWVRQAPGQGLEWMGGTAPIFGTTNYAQKFQGRVTITADKSTSTAYMELSSLRSEDTAVYYCARGGPYFDYWGQGTLVTVSS[human IgG1 constant region not written out]
light: EIVMTQSPASLSVSPGERATLSCRASQSVSSNLAWYQQKPGQAPRLLIYGASTRATGIPARVSGGGSGTEFTLTISSLQSEDFAVYYCQQYKNWPFTFGPGTKLEIKRTVAAPSVFIFPPSDEQLKSGTASVVCLLNNFYPREAKVQWKVDNALQSGNSQESVTEQDSKDSTYSLSSTLTLSKADYEKHKVYACEVTHQGLSSPVTKSFNRGEC
notes: PTM variant of PR002037 (L: C87Y), human IgG1

Experiments:
CD3 on human T cells = CD3 on human T cells (human, UniProt P07766; P04234; P09693); assay: FACS on human T cells; EC50 printed as n.d., curve still rising at 100 nM
Procedure: SK-BR-3 cells were digested. T cells were isolated using the human T cell isolation kit (Miltenyi, #130-096-535) as described in the method of the instruction, and resuspended with PBS containing 2% BSA. The cell density was adjusted to 1×10⁶ cells/mL. The cells were seeded in a 96-well V-bottom plate (Corning, #3894) at 100 μL/well, followed by the addition of test antibodies diluted in a 3-fold gradient at a concentration that was 2 times the final concentration, each at 100 μL/well. The cells were incubated at 4° C. for 2 h away from light. Thereafter, the cells in each well were rinsed twice with 100 μL of pre-cooled PBS containing 2% BSA, and centrifuged at 500 g at 4° C. for 5 min, and then the supernatant was discarded. Then each well was added with 100 μL of fluorescent secondary antibody (Alexa Fluor 488-conjugated AffiniPure Goat Anti-Human IgG, Fcγ Fragment Specific, Jackson, #109-545-098, diluted in a 1:500 ratio), and the plate was incubated away from light at 4° C. for 1 h. The cells in each well were washed twice with 100 μL of pre-cooled PBS containing 2% BSA, and centrifuged at 500 g at 4° C. for 5 minutes, and then the supernatant was discarded. Finally, the cells in each well were resuspended with 200 μL of pre-cooled PBS containing 2% BSA, and the fluorescence signal values were read using an ACEA Novocyte3000 flow cytometer.

[1] = biological target: T1, cynomolgus monkey B7H4 on the cell …; assay: FACS, CHOK1/cyno B7H4 cells
Procedure: (§1) This example is intended to investigate the in vitro binding activity of anti-human B7H4 H2L2 monoclonal antibody to human/cynomolgus monkey/mouse B7H4. Antibody binding experiments at the cellular level were performed using CHOK1 cell line overexpressing human B7H4 (CHOK1/hu B7H4, Harbour BioMed), CHOK1 cell line overexpressing cynomolgus monkey B7H4 (CHOK1/cyno B7H4, Harbour BioMed), CHOK1 cell line overexpressing mouse B7H4 (CHOK1/m B7H4, Harbour BioMed) and SK-BR-3 cell line (ATCC® HTB-30) highly expressing human B7H4. Briefly, CHOK1/hu B7H4 cells, CHOK1/cyno B7H4 cells, CHOK1/m B7H4 cells or SK-BR-3 cells were digested and resuspended with PBS containing 2% BSA. The cell density was adjusted to 1×10⁶ cells/mL. The cells were seeded in a 96-well V-bottom plate (Corning, #3894) at 100 μL/well, followed by the addition of test antibodies diluted in a 3-fold concentration gradient of 2 times the final concentration, each at 100 μL/well. The cells were incubated at 4° C. for 2 h away from light. Thereafter, the cells in each well were rinsed twice with 100 μL of pre-cooled PBS containing 2% BSA, and centrifuged at 500 g at 4° C. for 5 min, and then the supernatant was discarded. […] Finally, the cells in each well were resuspended with 200 μL of pre-cooled PBS containing 2% BSA, and the fluorescence signal values were read using an ACEA Novocyte3000 flow cytometer.

[2] = biological target: T1, cynomolgus monkey B7H4 on the cell …; assay: FACS, CHOK1/cyno B7H4 cells; remark: listed apart in the source
Procedure: (§2) This example is intended to investigate the in vitro binding activity of anti-human B7H4 H2L2 monoclonal antibody to human/cynomolgus monkey/mouse B7H4. Antibody binding experiments at the cellular level were performed using CHOK1 cell line overexpressing human B7H4 (CHOK1/hu B7H4, Harbour BioMed), CHOK1 cell line overexpressing cynomolgus monkey B7H4 (CHOK1/cyno B7H4, Harbour BioMed), CHOK1 cell line overexpressing mouse B7H4 (CHOK1/m B7H4, Harbour BioMed) and SK-BR-3 cell line (ATCC® HTB-30) highly expressing human B7H4. Briefly, CHOK1/hu B7H4 cells, CHOK1/cyno B7H4 cells, CHOK1/m B7H4 cells or SK-BR-3 cells were digested and resuspended with PBS containing 2% BSA. The cell density was adjusted to 1×10⁶ cells/mL. The cells were seeded in a 96-well V-bottom plate (Corning, #3894) at 100 μL/well, followed by the addition of test antibodies diluted in a 3-fold concentration gradient of 2 times the final concentration, each at 100 μL/well. The cells were incubated at 4° C. for 2 h away from light. Thereafter, the cells in each well were rinsed twice with 100 μL of pre-cooled PBS containing 2% BSA, and centrifuged at 500 g at 4° C. for 5 min, and then the supernatant was discarded. Then 100 μL of a fluorescent secondary antibody (Alexa Fluor 488-conjugated AffiniPure Goat Anti-Human IgG, Fcγ Fragment Specific, Jackson, #109-545-098, 1:500 diluted) was added to each well. The plate was incubated away from light at 4° C. for 1 h. The cells in each well were washed twice with 100 μL of pre-cooled PBS containing 2% BSA, and centrifuged at 500 g at 4° C. for 5 minutes, and then the supernatant was discarded. Finally, the cells in each well were resuspended with 200 μL of pre-cooled PBS containing 2% BSA, and the fluorescence signal values were read using an ACEA Novocyte3000 flow cytometer.

[3] = biological target: T2, mouse B7H4 on the cell surface; assay: FACS, CHOK1/m B7H4 cells
Procedure: as §1

[4] = biological target: T2, mouse B7H4 on the cell surface; assay: FACS, CHOK1/m B7H4 cells; remark: listed apart in the source
Procedure: as §2

[5] = biological target: T3, human B7H4 on the cell surface; assay: FACS on SK-BR-3 cells, expression supernatant at 1 X and 10X
[6] = biological target: T3, human B7H4 on the cell surface; assay: FACS, SK-BR-3 cells
Procedure: as §2

CD3 on human T cells, sequence (P07766 23-207 limits assumed, chain 1 of 3): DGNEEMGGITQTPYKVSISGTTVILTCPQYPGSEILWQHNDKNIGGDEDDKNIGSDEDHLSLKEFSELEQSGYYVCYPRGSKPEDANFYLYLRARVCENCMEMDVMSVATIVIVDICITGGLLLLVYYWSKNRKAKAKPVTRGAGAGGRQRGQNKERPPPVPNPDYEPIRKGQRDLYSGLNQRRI
CD3 on human T cells, sequence (P04234 22-171 limits assumed, chain 2 of 3, further chain): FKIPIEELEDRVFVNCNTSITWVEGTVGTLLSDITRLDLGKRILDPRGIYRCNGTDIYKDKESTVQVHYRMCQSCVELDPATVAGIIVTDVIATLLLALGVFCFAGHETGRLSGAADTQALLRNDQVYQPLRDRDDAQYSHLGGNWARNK
CD3 on human T cells, sequence (P09693 23-182 limits assumed, chain 3 of 3, further chain): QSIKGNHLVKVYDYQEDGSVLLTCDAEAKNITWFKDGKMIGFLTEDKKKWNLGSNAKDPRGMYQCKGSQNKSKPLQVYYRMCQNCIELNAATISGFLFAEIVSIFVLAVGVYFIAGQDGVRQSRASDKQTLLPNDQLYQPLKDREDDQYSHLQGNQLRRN

| Binder | Maximum MFI (CD3 on human T cells) | EC50 [2] [nM] | Maximum MFI [2] [MFI] | EC50 [4] [nM] | Maximum MFI [4] [MFI] | also measured |
| --- | --- | --- | --- | --- | --- | --- |
| B1 | 44400 |  |  |  |  |  |
| B2 | 39400 |  |  |  |  |  |
| B3 |  | 1.1 | 1.82e+06 | 3.61 | 353000 | EC50 [1]: 0.886 nM; Maximum MFI [1]: 972000 MFI; EC50 [3]: 3.02 nM; Maximum MFI [3]: 230000 MFI |
| B4 |  |  |  |  |  | binding result [5]: binds |
| B5 |  | 2.08 | 1.86e+06 | 2.38 | 1.55e+06 | EC50 [6]: 1.87 nM; Maximum MFI [6]: 245000 MFI |
